Experimental data reported in publication PMC12040169 (PLOS Biology, 2025).
Some of the results follow.

System: T1, C. trachomatis L2/434/Bu expressing GFP (CTL2-GFP)
T1 construct: L2/434/Bu GFP intracellular growth in HeLa cells
Parameters: species or system HeLa; C. trachomatis total inclusion area by high-content imaging, normalised to DMSO
Conditions: total inclusion area; 28.5 h, 10 µM; inhibitor
Procedure, shortened: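 Host cell viability was gauged from Hoechst-stained nuclei counts, while chlamydial growth was taken from total inclusion area and inclusion number per well. Cells were fixed and imaged by high-content microscopy once bulk GFP and resorufin fluorescence had been measured.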

SMILES	% of control remaining
O=C(NCCc1ccc(O)cc1)c1ccc2[nH]ccc2c1 [CBK149063]	92.868
COc1cccc(CN2CCCC(NC(=O)c3ccccc3Cl)C2)c1 (stereo not shown) [CBK306774]	67.5628
CC(=O)Nc1ccc(-c2ccc3n(c2=O)C[C@H]2C[C@@H]3CN(C(=O)C3CCCCC3)C2)cc1 [CBK289188]	112.56
O=C(Cn1cc(C(=O)Nc2cc(F)ccc2N2CCCC2)ccc1=O)NC1CCCCC1 [CBK285981]	113.618
O=C(Nc1ccc2ncccc2c1)c1ccc(F)c(F)c1 [CBK159810]	85.5294
CCOC(=O)C1=C(C)NC(=O)NC1c1ccc(-c2ccccc2F)o1 (stereo not shown) [CBK263867]	93.7298
CCn1c(SC(C)C(N)=O)nc2ccc(Br)cc2c1=O (stereo not shown) [CBK306424]	46.7854
C1=CCC(CN(CCCn2ccnc2)Cc2cccnc2)CC1 (stereo not shown) [CBK283216]	89.6573
Cc1nc(C(Cc2ccsc2)NC(=O)C2CCCNC2)sc1C (stereo not shown) [CBK282228]	116.975
O=C(COc1ccc([N+](=O)[O-])cc1)Nc1ccc(S(=O)(=O)N2CCCCC2)cc1 [CBK265003]	99.7977
OC(CN1CCC(O)(c2ccc(F)cc2)CC1)c1ccc(F)cc1 (stereo not shown) [CBK282510]	103.686
C=CCn1c(COc2cccc3ccc(C)nc23)nnc1SC [CBK266608]	81.9504
O=C(c1ccccc1Br)N1CCN(c2ccc([N+](=O)[O-])c(NCc3cccnc3)c2)CC1 [CBK265735]	132.24
CN1Cc2ccccc2CC1C(=O)N1CCCC12CC=CC2 (stereo not shown) [CBK282838]	122.329
Cc1ccc(S(=O)(=O)NCCSc2nnc(N)s2)cc1 [CBK266300]	94.2493
Cn1ncc(N)c1C(=O)Nc1cccc(Cl)c1 [CBK270107]	116.316
COc1cc(CNc2cc(-c3cccc4oc5ccccc5c34)ncn2)cc(OC)c1OC [CBK091177]	111.591
N#Cc1cnc2c(-c3ccccc3)c(Cc3ccccc3)nn2c1N [CBK270191]	124.542
O=C1NC2(CCN(C(=O)c3cccs3)CC2)Oc2ccccc21 [CBK283998]	64.757
O=C(c1ccc(F)cc1)N1CCCC(c2nccnc2-c2cccc(C(F)(F)F)c2)C1 (stereo not shown) [CBK286142]	96.319
Cc1cc2ccccc2n2c(SCCC(=O)Nc3ccc(C(C)(C)C)cc3)nnc12 [CBK265639]	99.1559
CCCCOC(=O)c1ccc(NC(=O)c2cc(-c3ccco3)nc3c2c(C)nn3C)cc1 [CBK295313]	92.1114
CC1CCCN(C(=O)CCc2nc3sc4c(c3c(=O)[nH]2)CCCC4)C1 (stereo not shown) [CBK306073]	100.035
O=C(NCCn1nc2c(cc1=O)CCCCC2)c1ccccc1F [CBK282300]	113.707
Cc1cc(C)c(C)c(S(=O)(=O)NCCOCCO)c1C [CBK269153]	103.346

SMILES	% of control remaining
Cc1nc2c(c(=O)[nH]1)CCN(Cc1ccc(Cl)c(Cl)c1)C2 [CBK283969]	93.4239
CCN1CCN(c2ccc(NC(=O)c3ccc(-c4cc5ccccc5oc4=O)cc3)cc2Cl)CC1 [CBK266700]	113.427
COc1cc(/C=C(/C#N)c2ccc(C(=O)O)cc2)c([N+](=O)[O-])cc1OCc1ccccc1 [CBK268738]	93.7509
Cc1[nH]c(=O)c(C(=O)N(C)C(C)c2ccc(Cl)cc2)cc1-c1ccc(O)cc1 (stereo not shown) [CBK291225]	93.7707
CC(=O)Oc1ccc(NC(=O)C2CC(Cl)=CCC2C(=O)O)cc1C(=O)O (stereo not shown) [CBK265372]	105.795
CCCNC(=O)C1(Cc2ccccc2-c2cccs2)CCN(C(=O)c2ccccc2)CC1 [CBK285694]	116.544
Cc1ccc(S(=O)(=O)NCCSCc2ccc(Cl)c(Cl)c2)cc1[N+](=O)[O-] [CBK264675]	99.7723
COC(=O)c1c(NC(=S)Nn2cnnc2)sc2c1CCC(C)C2 (stereo not shown) [CBK266942]	122.972
CCc1nc2ccc(C(=O)NCC3CCCCC3)cn2c1N(C)Cc1ccc(OC)cc1 [CBK145568]	114.908
Cn1nc(C(=O)NCC(c2ccccc2Cl)N2CCOCC2)ccc1=O (stereo not shown) [CBK305886]	90.1156
COC(=O)CCn1c(=O)c2c(nc3oc(C)c(C)n32)n(C)c1=O [CBK306033]	106.053
O=C(O)[C@H]1CN(C(=O)c2ccco2)C[C@@H]1c1ccc(F)cc1 [CBK283735]	54.8024
OCCn1ncc2c(NCc3nncn3-c3ccccc3)ncnc21 [CBK304608]	83.9176
CS(=O)(=O)N1CC2(CCN(CCc3c[nH]c4ccccc34)CC2)c2ccccc21 [CBK084017T]	88.9711
COc1ccc(C(=O)N2CCC3(CCN(Cc4c(F)cccc4F)C3)C2)cc1OC (stereo not shown) [CBK132152]	40.5091
O=C(N[C@H]1CCN2C(=O)c3cc(-c4ccccc4F)ccc3NC(=O)[C@@H]2C1)c1cnccn1 [CBK289558]	98.2487
COc1cccc(OCC(=O)O/N=C(\N)c2ccncc2)c1 [CBK262592]	110.436
Cc1cc(COc2nc3ccccc3nc2NC[C@@H]2CCCO2)no1 [CBK174027]	70.7599
CC(=O)Nc1ccc(-c2ccc(=O)n3c2[C@@H]2C[C@@H](CN(C(=O)c4ccccc4)C2)C3)cc1 [CBK289198]	87.2731
CN(C)c1ccc(C(=O)N2CCN3C(=O)[C@H](Cc4ccc(F)cc4)NC(=O)[C@H]3C2)cc1 [CBK289601]	106.657
Cc1[nH]c(=O)[nH]c(=O)c1C(=O)Nc1ccccc1 [CBK116181]	84.092
CCOc1cccc(CNC(=O)N2CCC(Cc3cnn(C)c3)C2)c1 (stereo not shown) [CBK305280]	38.9965
CCCCSc1nc(N)cc(N2CCC(C(=O)NCC)C2)n1 (stereo not shown) [CBK306880]	76.7036
CCCCC1(COC(C)=O)OC(=O)Nc2ccc(Br)cc21 (stereo not shown) [CBK010195]	65.9129
